Test results from article PMC10902388.

Biological target: full-length human E6AP (C-terminal TEV-6xHis-Avi) (human) (UniProt Q05086)
Experiment: SPR

recombinant MBP-18E6 (a stretch of the chain, chain not printed)
koff (natural protein, chains chain, biotin on the Avi tag (BirA biotin-protein ligase) in the SPR experiments, remark: other sources report otherwise): 0.00047 s⁻¹

recombinant MBP-18E6 (a stretch of the chain, chain not printed) (natural protein; biotin on the Avi tag (BirA biotin-protein ligase) in the SPR experiments; other documents disagree on this pair)
Kd: 980 pM
